We go through 23 molecules from PubChem BioAssay AID1346428 (National Center for Advancing Translational Sciences (NCATS), 2018).

Molecules are shown by their SMILES. “And” between values parts separate entries of the source, which are not always exact repeats. Equal entries are not always repeated. Hit rate of the full screen: of about 48,000 compounds, about 1,200 (2.5%) were called active. Inconclusive results (about 2%) are left out.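 How the source made its calls: active means activation of at least 60% and not above a set upper limit (about 1 call in 100 departs from these limits); inconclusive means activation of 40% to 60%, or above that upper limit; inactive means activation under 40%.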 Some of the results follow.

This test addresses Probable G-protein coupled receptor 32 (Homo sapiens) (UniProt O75388). The test can be described thus: qHTS for Agonists of Human Resolvin D1 Receptor DRV1. Further: 0% is about no effect. Particulars: CHO-K1 GPR32 beta-arrestin PathHunter luminescence, 90 min; at 76.9 µM; active compounds read high; zero percent set by DMSO-only wells. The gist of the method: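 Readings come from a cell-based beta-arrestin complementation format: CHO-K1 GPR32 stable cells (2,500/well) treated 90 min with compounds, then beta-Gal substrate added for 1 h before chemiluminescence imaging.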
Chain of UniProt O75388 (O75388 whole entry, looked up): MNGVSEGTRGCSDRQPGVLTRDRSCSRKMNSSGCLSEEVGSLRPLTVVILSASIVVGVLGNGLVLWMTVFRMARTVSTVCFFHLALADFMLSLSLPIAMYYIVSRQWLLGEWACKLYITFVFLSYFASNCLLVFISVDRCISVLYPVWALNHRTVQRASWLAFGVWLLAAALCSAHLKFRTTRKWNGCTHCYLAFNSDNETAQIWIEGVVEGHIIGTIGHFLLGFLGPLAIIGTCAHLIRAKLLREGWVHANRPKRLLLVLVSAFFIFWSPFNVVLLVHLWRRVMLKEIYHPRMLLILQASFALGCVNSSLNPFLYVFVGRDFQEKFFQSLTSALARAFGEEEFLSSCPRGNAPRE
In the case of `COc1ccccc1CNC(=O)C(Cc1ccccc1)NS(=O)(=O)c1ccc2c(c1)oc(=O)n2C` (stereo not drawn), the activation was inactive: -0.262%. As for `O=C1CC(c2nc3ccccc3n2CCCCOc2ccccc2)CN1c1ccccc1Cl` (stereo not drawn), the activation is inactive: 11.3%. On to `CC1CCCCN1Cc1c(O)ccc2c(=O)c(-c3cccc(Cl)c3)c(C(F)(F)F)oc12` (stereo not drawn), for which the activation is inactive: -11.7%. As for `CCc1nnc(NC(=O)CSc2nc3c([nH]c4ccccc43)c(=O)n2-c2cc(C)cc(C)c2)s1`, the figure is inactive: 44.7%. Regarding `CC1C(=O)N2CCCc3cc(S(=O)(=O)Nc4ccc(Br)cc4F)cc1c32` (stereo not drawn), the activation was inactive: 10.5%. With `CCOc1cc(-c2nnc(SCC(=O)NCc3ccc(C)cc3)nc2-c2ccc(OC)c(OCC)c2)ccc1OC`, the activation is inactive: -11.9%. For `O=C(Cn1c(=O)oc2cc(S(=O)(=O)NCc3ccccc3)ccc21)N(CCO)Cc1ccccc1`, the activation was inactive: -6.88%. Turning to `COc1ccc(OC)c(NC(=O)c2nc(SCc3ccccc3F)ncc2Cl)c1`, the activation is inactive: -12.8%. `COc1cccc(NC(=O)C2CCCN2S(=O)(=O)c2ccc3c(c2)n(C)c(=O)c(=O)n3C)c1` (stereo not drawn): the activation is inactive: -10.6%. For `CCc1cccc(-n2c(=O)c3cccnc3n2CC(=O)Nc2ccccc2C(=O)OC)c1`, the activation is inactive: -8.52%. Regarding `CCC1CN(C(=O)Nc2cc(OC)cc(OC)c2)c2ccccc2S1` (stereo not drawn), the activation was inactive: -20.4%. Take `CCOc1ccc(NC(=O)c2ccc3nc(Cc4ccccc4)oc3c2)cc1`: the activation was inactive: -2.19%. The same measure for `Cc1ccc2oc(C(=O)Nc3sc4c(c3C(=O)NCc3ccccc3)CCCC4)cc(=O)c2c1`: inactive: -9.01%; for `COc1ccc(-n2nc3cc(C)c(NC(=O)c4ccc(C)cc4C)cc3n2)cc1Cl`: inactive: -0.308%; for `Cc1ccc(OCC(=O)OCc2cc(=O)n3c(C)csc3n2)cc1`: inactive: 8.94%. Take `Cc1ccccc1NC(=O)N1CCC(CN2CCCC2)CC1`: the activation was inactive: -13%. The same measure for `CCC(=O)N1CCc2cc(S(=O)(=O)NC(Cc3ccccc3)C(=O)NCc3ccc(F)cc3)ccc21` (stereo not drawn): inactive: 2.83%; for `Nc1ccc(C(=O)OCC(O)CO)cc1` (stereo not drawn): inactive: -2.69%.

In the case of `COc1cc(NC(=O)CSc2ccc(-c3sc(-c4ccccc4)nc3C)nn2)cc(OC)c1`, the activation was inactive: -17.4%. On to `CCCc1cc(=O)[nH]c2nnc(SCCC(C)C)n12`, for which the activation is inactive: 29.8%. Consider `COC(=O)c1c(NC(=O)COc2ccc(OC)cc2)sc2c1CCC(C)C2` (stereo not drawn), for which the activation is inactive: -2.84%. Turning to `Cc1cc(C)cc(OCCSc2nc(-c3ccc(C(C)(C)C)cc3)nc3cc(=O)[nH]n23)c1`, the activation is inactive: 27.2%. On to `CN1Cc2c(N)cccc2C(c2ccccc2)C1` (stereo not drawn), for which the activation is inactive: 25.6% and inactive: -20%.
